Measured values reported in PMC7212925.

Target: AXL C-terminally fused to LgBiT or SmBiT (NanoBiT construct) (human), P30530
Test: split reporter (BiFC, NanoBiT); NanoBiT complementation in live U87 cells incubated with ligand (Gas6 for AXL, EGF for EGFR; concentration series or 10 nM); signal as ratio to the untreated control
Conditions: remark: other sources report otherwise

B1: AXL C-terminally fused to LgBiT or SmBiT (NanoBiT construct) (receptor)
chain: [sequence of about 450 residues not given]YVLLGAVVAAACVLILALFLVHRRKKETRYGEVFEPTVERGELVVRYRVRKSYSRRTTEATLNSLGISEELKEKLRDVMVDRHKVALGKTLGEGEFGAVMEGQLNQDDSILKVAVKTMKIAICTRSELEDFLSEAVCMKEFDHPNVMRLIGVCFQGSERESFPAPVVILPFMKHGDLHSFLLYSRLGDQPVYLPTQMLVKFMADIASGMEYLSTKRFIHRDLAARNCMLNENMSVCVADFGLSKKIYNGDYYRQGRIAKMPVKWIAIESLADRVYTSKSDVWSFGVTMWEIATRGQTPYPGVENSEIYDYLRQGNRLKQPADCLDGLYALMSRCWELNPQDRPSFTELREDLENTLKALPPAQEPDEILYVNMDEGGGYPEPPGAAGGADPPTQPDPKDSCSCLTAAEVHPAGRYVLCPSTTPSPAQPADRGSPAAPGQEDGA
EC50 of Gas6 for AXL dimerization: 0.6 nM
